Results as given in the supplement of paper PMC10185492.
This is one part of the list. Values come from read counts of a selection and are noisy.

test system: SARS-CoV-2 3CLpro (nsp5); experiment: substrate phage enrichment score (protease-eluted vs HEPES control, +1 offset) (ratio); higher = better cleaved substrate; details: selection round: 3; protease elution time: 0.5 h
Description: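 Random heptapeptide substrate phage display (M13 pIII fusion, heptapeptide between an N-terminal biotinylated AviTag GLNDIFEAQKIEWHE and pIII; phages immobilised on streptavidin) eluted by cleavage with 50 nM protease in 20 mM HEPES at 37 °C. Selected phages were NGS sequenced, and the enrichment score is (reads in protease sample + 1)/(reads in HEPES blank-selection control + 1).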

| Substance | substrate phage enrichment score |
| --- | --- |
| LPGNQRG | > 69 |
| PTTNSMQ | > 24 |
| CSYDGRQ | > 27 |
| VTLQAGI | > 22 |
| NTITVMG | 1 |
| AKSWDGS | 9.33 |
| SNIKAQC | 10.5 |
| EVHVMCN | > 28 |
| ARVRLQS | 32.7 |
| MPLRAAQ | 1.3 |
| AQAAHHH | 1.44 |
| NEPITFR | > 25 |
| PASPVLQ | > 207 |
| NNCVNDR | > 21 |
| LQGGASG | > 23 |
| NELTLDP | 6.2 |
| SEQVTLQ | > 104 |
| KESDKET | > 22 |
| HKPFGSR | 0.733 |
| ISKLQSG | > 42 |
| FHHHHGA | 2.12 |
| GNCHKET | 1.15 |
| FRESEEN | 6.6 |
| SRQYFQG | > 24 |

| Substance | substrate phage enrichment score |
| --- | --- |
| HEAAHHH | 0.921 |
| SCTRWSC | > 24 |
| VTPRCLK | 0.421 |
| AQGNAVC | 0.923 |
| TSAHHHH | 0.812 |
| EGAHAPW | 1.85 |
| SCNGIGS | 10.5 |
| RLAAHHH | 2.83 |
| PIERFDT | 0.5 |
| SVAAHHH | 1.05 |
| SQRSLAP | 3.83 |
| THRGNLD | 6.33 |
| VVHESLS | > 30 |
| AHLKSHN | > 22 |
| VTISRQG | > 31 |
| RTGLNTS | 8 |
| APVRLQS | 101 |
| HNHHHGA | 0.714 |
| NVQLQAS | > 84 |
| PSYELKA | > 29 |
| ANAAAHH | 0.304 |
| QRCNAAA | > 23 |
| DHVTILQ | 21.5 |
| QHNNLSR | 16 |

| Substance | substrate phage enrichment score |
| --- | --- |
| PRMYTNP | 0.696 |
| SLNVLSR | 3.53 |
| PYSWQQR | 0.909 |
| TQDGGGT | > 28 |
| HCGPVVN | 2.47 |
| AERNTIC | > 45 |
| QTFCRSR | > 54 |
| LCRDRCM | 5.25 |
| AHESGAI | 7.67 |
| LSRQNTR | > 29 |
| RHVSKAG | 17.5 |
| TCIMQSQ | > 26 |
| VQVRLQS | > 38 |
| HEPTLPT | > 35 |
| LYFQGGS | 1.56 |
| ETDGISN | 1.64 |
| PMAAHHH | 1.1 |
| GNRTKLQ | > 26 |
| SPTWVEP | > 25 |
| LPKTCEN | 5.25 |
| QLYFQGG | 1.05 |
| ACSYLIP | > 28 |
| FAAAHHH | 0.971 |
| LNTRPNH | > 22 |

| Substance | substrate phage enrichment score |
| --- | --- |
| PTPLLSG | > 38 |
| SYETNRN | 3.36 |
| TYTSGSN | > 40 |
| ACTLNRG | 1.44 |
| SCAPTRE | > 25 |
| KPVQLQS | 56.5 |
| CAAAHQH | 0.715 |
| MPAAHHH | 1.18 |
| SAAPQHH | 2 |
| PKRGKTM | 1.6 |
| DAHDDYR | 2.88 |
| KEQAGKI | 7.67 |
| ICHSELQ | > 22 |
| EIRGFYD | 2.15 |
| LRNWHST | 1.44 |
| GRTSQLQ | > 43 |
| APAGSRT | 2.22 |
| SHVGSCR | > 23 |
| SCILQAR | 12.7 |
| CYSPYEW | 13.5 |
| NRAGQYG | 1.77 |
| VLREPVG | 2.29 |
| CQPNMFM | 14 |
| ERSPALG | 1.27 |

| Substance | substrate phage enrichment score |
| --- | --- |
| LNGTINR | 1.8 |
| KELTAGT | 4.38 |
| RTAAHHH | 0.942 |
| SAAAHYH | 1.6 |
| DYRPSKT | 12 |
| PRSVNDS | 0.833 |
| VRHDVIV | 4.5 |
| RLQSGNR | > 55 |
| CSAAHHH | 0.759 |
| ISEPQAW | 1.24 |
| SEEGVLY | 0.5 |
| DSWQLRN | > 34 |
| EAKCAFG | > 42 |
| PALQSGS | > 53 |
| YQKSTLQ | 65.2 |
| PSIPLNP | 6.77 |
| VGMQGRC | 3.67 |
| QPIMRWP | 11 |
| ATRALLQ | > 173 |
| PNLQGGS | 3.33 |
| SRAHCAR | > 21 |
| CPSQKHH | 7 |
| YLREPER | > 36 |
| RCTVLQS | 8 |

| Substance | substrate phage enrichment score |
| --- | --- |
| WPMCFPP | > 21 |
| RPHIIIT | 1.29 |
| GISQGAL | > 160 |
| NTWQDFT | 7.75 |
| RSAAAHH | 0.763 |
| AMSESQC | > 23 |
| FSKPATV | > 25 |
| QGYEPVQ | 6 |
| CFYPELQ | > 29 |
| LQSRTDT | > 26 |
| VQYFQGG | 1.7 |
| KKNYNEQ | 1.23 |
| PYCCARN | 1.3 |
| SKSSYMG | 3.17 |
| TWMTQLQ | > 21 |
| PSAHHHH | 0.474 |
| DSAAHHH | 0.359 |
| AWHESGT | 1.88 |
| AKRDTEI | > 28 |
| KRQYLQP | > 21 |
| RASKIGI | > 23 |
| AHAGWHK | 0.692 |
| KAAAHHH | 1.47 |
| CRQQARS | > 23 |

| Substance | substrate phage enrichment score |
| --- | --- |
| STCGPKG | > 25 |
| VPRDLRQ | 1.95 |
| SDTRMNR | 13 |
| NELTPAK | > 23 |
| VMMIVCG | 0.467 |
| WRQPSQR | 1.18 |
| QRNQWYQ | 11 |
| LNYYKRD | 1.55 |
| ASGTGVS | > 29 |
| AEQQRLQ | 2.44 |
| WQYNTYG | 2.24 |
| RCYSTLQ | > 74 |
| WPAAHHH | 2.21 |
| SRPHIII | 0.571 |
| RVSIRCR | > 23 |
| ERKPCGL | 0.16 |
| TDCPPGK | 1.75 |
| PHFQGGS | 1.69 |
| HHHHHGA | 0.479 |
| KGCLLTR | > 33 |
| IRPVCEK | > 32 |
| DGARRDG | 1.07 |
| YLIQCEQ | > 21 |
| CGAGQSP | > 30 |

| Substance | substrate phage enrichment score |
| --- | --- |
| RSAAHHH | 1.02 |
| LSPPKCA | > 25 |
| GLRYLGA | 1.89 |
| VRNTSKV | 1.76 |
| LLRPTSG | > 21 |
| VTNPSFQ | 3.62 |
| LCFQGGS | 0.769 |
| RSRLITN | 11 |
| IRAAHHH | 0.864 |
| TGVVPRA | 10 |
| PEHSMLQ | > 83 |
| QDARHCR | 7.67 |
| PDEGTDL | > 26 |
| TEHNGTR | > 30 |
| PATILMS | > 65 |
| AKAAHHH | 1.27 |
| TCLQSCV | 40.1 |
| RQSFEQR | 5 |
| PSGAAHH | 3.1 |
| FQGGSAA | 1.33 |
| PRSVHLQ | 33 |
| RACRLLR | 1.6 |
| VQPILDR | 5.75 |
| LTADTAV | 3.83 |

| Substance | substrate phage enrichment score |
| --- | --- |
| TNELSVQ | > 28 |
| RGGSAAA | 1.3 |
| CAAAPHH | 1.05 |
| VGRPCST | 2.67 |
| PMHPVQH | 0.0652 |
| TADTGTR | 18.5 |
| VTAAHHH | 1.18 |
| IATPMPD | 1.5 |
| KRGSAAA | 46.5 |
| LPRESGG | 27 |
| QKKRTPV | > 40 |
| PAGCAST | 1 |
| KAAARLQ | > 24 |
| NPRSTAP | 2.67 |
| QGEIDSH | > 23 |
| HTSGQRF | 2.29 |
| ALSLCPS | 30.5 |
| QVSELTG | > 39 |
| RTRLQGQ | > 28 |
| ELRQGYN | 8 |
| GRSTRLQ | 13 |
| KRTSPAR | 1.42 |
| TEQEFFQ | 12 |
| EPSRNRT | > 48 |

| Substance | substrate phage enrichment score |
| --- | --- |
| ELSEHRQ | > 70 |
| STRCMLQ | > 21 |
| LKSAQLQ | > 25 |
| ISAAAHH | 1.12 |
| AAVSILH | > 117 |
| RCQGRIR | > 30 |
| DLKSMPQ | > 23 |
| VPRSRIG | > 30 |
| QPAGSAA | > 41 |
| EYLMGPS | 0.923 |
| SAAAYHH | 1.52 |
| RQPSCLH | > 22 |
| LNNNPGR | 0.261 |
| RQNKLKP | > 25 |
| ITPQENA | > 26 |
| HGSTHAV | 2.88 |
| NRLSGVK | > 22 |
| CVLLQSH | > 87 |
